Laboratory results from PubChem BioAssay AID1508623 (National Center for Advancing Translational Sciences (NCATS), 2021).
About 450 (0.94%) of roughly 48,000 compounds were called active. Another 19% or so got no clear call; they are omitted. Calls follow the shape of the dose curve; as a rule, active = well fitted inhibition curve with a large enough effect; inconclusive = small, poorly fitted or top-dose-only effect; inactive = no such curve, though single readings can be large or run the other way. The list shows a part of the results.

Assay: Primary qHTS for Identification of Small Molecule Inhibitors of Huntingtin Promoter Activity; also: nearly all actives have a fitted effect of over 50% in size
Details: HEK293 HTT promoter firefly luciferase reporter (activity 0% = vehicle and -100% = no light), 24 h; series mostly up to 57.5 µM; activity change, negative = inhibition: at the top concentration
Procedure, shortened: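 HEK293 luciferase promoter-reporter cells (2,500/well) plated 24 h, then compounds added at up to 57.5 uM final for 24 h at 37 °C. Firefly luminescence by Dual-Glo, normalized to vehicle (0%) and zero RLU (-100%).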

Activity change, negative = inhibition, inactive:
Cc1nn(-c2ccccc2)c(-n2cccc2)c1C(=O)N1CCN(c2ccccc2)CC1 -19%
COCCCN1C(=O)c2[nH]nc(-c3cc(C)ccc3O)c2C1c1ccc(F)cc1 (centres undefined) -25.3%
Cc1ccccc1NC(=O)C(Cc1ccccc1)N1Cc2ccccc2C1=O (centres undefined) -15.4%
COc1ccc(CNCCC(c2ccc(C)cc2)c2ccco2)cc1 (centres undefined) -28%
Cc1cccc(OCC(=O)Nc2ccc(S(=O)(=O)Nc3onc(C)c3C)cc2)c1C -8.18%
Cc1ccc2oc(=O)c3cc(C(=O)Nc4ccc(C)c(F)c4)sc3c2c1 1.3%
CCc1nnc(NC(=O)CSc2nc3c([nH]c4ccccc43)c(=O)n2-c2ccc(F)cc2)s1 -13.4%
COc1ccccc1/C=C/c1onc(C)c1S(=O)(=O)N1CCC(C(=O)N2CCC(C)CC2)CC1 -3.88%
Cc1cccn2c(=O)cc(COc3ccc(NC(=O)C(C)C)cc3)nc12 -11.3%
Cc1ccc(-n2nc(C)c3c(C)cc(=O)n(CC(=O)Nc4cc(Cl)ccc4C)c32)cc1 -23.5%
Nc1ccc2oc(-c3ccccc3Br)nc2c1 -16.7%
COc1ccc(C(=O)NCc2nc(-c3cccc(C)c3)no2)cc1OC -18.1%
Cc1nc(-c2ccc(S(=O)(=O)NCc3ccc(F)cc3)cc2)co1 -28.9%
COc1cccc(C(=O)COC(=O)c2cc(-c3cccs3)nc3ccccc23)c1 -19.7%
Cc1cc(NS(=O)(=O)c2cn(C)c(C)n2)ccc1Br 5.08%
COc1cccc(CNC(=O)CCc2c(C)nc3c4c(C)cc(C)nc4nn3c2C)c1 -7.82%
Cc1ccccc1OCC(=O)Nc1nnc(SCc2cc(=O)n3cc(Cl)ccc3n2)s1 5.28%
Cc1ccc(C)c(CN2C(=O)c3ccccc3S(=O)(=O)c3ccc(C(=O)NCCc4ccc(Cl)cc4)cc32)c1 -12.9%
CCc1ccccc1NC(=O)C1CCN(c2nc3ccccc3[nH]2)CC1 8.15%
Cc1ccc(CCNc2nc3ccccc3c3nc(-c4cccnc4)nn23)cc1 -2.02%
CC(C)CCSc1nnc2n(-c3ccccc3)c(=O)c3c4c(sc3n12)CC(C)CC4 (centres undefined) -12.3%
CCOC(=O)c1c(C)[nH]c(C)c1S(=O)(=O)NCC(=O)NCc1cccc(Br)c1 -21.7%
CCc1ccc(NC(=O)Cn2c(=O)nc(-c3ccccc3F)c3cc(Cl)ccc32)cc1 23.4%
COC(=O)c1ccccc1N(C)S(=O)(=O)c1cc2c3c(c1)CC(=O)N3CCC2 -7.88%
Cc1ccc2cc3cc(C(=O)N4CCN(c5ccccc5)CC4)sc3nc2c1 13.2%
O=C(Cn1cc(S(=O)(=O)Cc2cccc(Cl)c2)c2ccccc21)NCc1ccccc1Cl -28.4%
CCCNc1ncnc2c1c(-c1ccccc1)cn2-c1ccccc1 -26.8%
CCn1cc(C(=O)N2CCN(c3cccc(C)c3)C(C)C2)c(=O)c2cc(S(=O)(=O)N3CCOCC3)ccc21 (centres undefined) -4.58%
COc1ccc(-c2nsc(NC(=O)c3oc4ccccc4c3C)n2)cc1 7.15%
Cc1coc2c(C)c3oc(=O)c(CCC(=O)N4CCCCC4)c(C)c3cc12 -22.7%
CN(C)c1ccc(CNC(=O)CCCN2C(=O)CCn3nc(-c4cn(C)c5ccccc45)cc32)cc1 -9.31%
C[C@]12CC[C@@H]3c4ccc(O)cc4CC[C@H]3[C@@H]1CC[C@@H]2OC(=O)CCC1CCCC1 10.2%
COCCn1c(C)cc(O)c(C(c2ccccc2Cl)N2CCCCC2)c1=O (centres undefined) -12.7%
CNc1nccc(-c2cccnc2Oc2cc(C(=O)Nc3cccc(C(F)(F)F)c3)ccc2C)n1 -28.5%
CCCN1CCN(CCCNC(=O)c2cc3c(s2)-c2ccccc2OC3)CC1 -10.6%
Cc1c(NS(=O)(=O)c2ccc(Cl)cc2)c(=O)n(-c2ccccc2)n1C -5.43%
Cc1nc2c(c(C)c1CCC(=O)Nc1ccc(F)cc1)c(=O)n(C)c(=O)n2C -16.7%
COc1ccc(C2=NN(CCC(=O)NCCc3ccccc3)C(=O)CC2)cc1 -5.31%
COCCn1c(C)cc(O)c(C(c2ccccc2F)N2CCN(c3ccccc3)CC2)c1=O (centres undefined) -2.16%
COc1ccc(NC(=O)Cn2nnc(-c3nc(-c4ccncc4)no3)c2N)cc1OC 3.02%
Cc1cccc(C)c1NC(=O)C1CCCN1S(=O)(=O)c1cccc2nsnc12 (centres undefined) -15.6%
Cc1ccc(NC(=O)c2cccc(NC(=O)N3CCSc4ncccc43)c2)cc1F 1.56%
CCOc1ccc(CNC(=O)c2ccc(NC(=O)N3CCSc4ncccc43)cc2)cc1 -27%
CCCN1C(=O)c2oc3cc(C)cc(C)c3c(=O)c2C1c1ccc(F)cc1 (centres undefined) -21.1%
CCN(CC)CCCNC(=O)CCc1c(C)nc2c(c1C)c(=O)n(C)c(=O)n2C -8.53%
COc1ccc(-c2cc(C(F)(F)F)nc(SCC(=O)Nc3ccc(O)cc3)n2)cc1OC -3.64%
Cc1ccc(C)c(NC(=O)c2cnc3sc(N4CCOCC4)nn3c2=O)c1 9.53%
CCCCOCCOC(=O)c1cccnc1 11.1%
Cc1cc(=O)c2cc(C(=O)Nc3cccc(C)c3C)ccc2[nH]1 -23.3%
COc1ccc(-c2nc3cc(NC(=O)COc4ccc(C)c(C)c4)ccc3o2)cc1 53.6%
COc1cc(OC)c(NC(=O)CCc2c(C)nc3ncnn3c2C)cc1Cl 2.23%
CN(Cc1ccccc1)c1ccc(-c2nc(-c3ccccn3)no2)cc1[N+](=O)[O-] -8.36%
COc1cccc(N2CCN(C(=O)c3cc4cc5cc(C)ccc5nc4s3)CC2)c1 20.3%
CCC(=O)N1c2ccccc2CC1C(=O)NCc1ccccc1Cl (centres undefined) 0.454%
Cc1cccc(NC(=O)CCn2cnnn2)c1C 12.9%
Cc1cccc(NC(=O)Cn2cc(C(=O)c3ccco3)c3ccccc32)c1 -22.3%
Cc1ccc(CNC(=O)c2ccc(Cn3c(=O)c4ccccc4n(CC(=O)Nc4ccc(C)cc4)c3=O)cc2)cc1 -8.77%
COc1ccc(Cn2cc(S(=O)(=O)c3ccc(Cl)cc3)c(=O)c3cc4c(cc32)OCO4)cc1 -27.6%
O=C(NC1(C(F)(F)F)C(=O)Nc2c1c(=O)[nH]c(=O)n2-c1ccc(Cl)cc1)c1ccccc1F (centres undefined) 1.63%
O=C(Nc1ccc2oc(-c3ccncc3)nc2c1)c1ccccc1Cl -18%
Cc1oc(-c2ccc(Cl)cc2)nc1CSc1nc2ncccc2[nH]1 -27.6%
CCc1ccccc1Nc1nn2c(=O)c3ccc(C(=O)NCCCOC(C)C)cc3nc2s1 -31.5%
O=C(OCc1cc(=O)n2nc(C3CCCCC3)sc2n1)c1ccc(F)cc1 -5.46%
CCOc1ccc(NC(=O)c2sc3nc4c(c(-c5ccc(OC)cc5)c3c2N)C(=O)CC(C)(C)C4)cc1 -3.71%
CCOc1ccc(-n2cc(-c3ccccc3)c3c(N4CCN(c5ccccc5OC)CC4)ncnc32)cc1 -12.2%
COC(=O)c1c(NC(=O)/C(C#N)=C/c2ccccc2)sc2c1CCC2 -14.7%
COc1ccc(-c2noc(-c3cccnc3N3CCN(c4ccc(OC)cc4)CC3)n2)cc1 18.2%
CCCCN(CC)C(=O)CSc1c2c(nc3ccc(Cl)cc13)CCCC2 -21.7%
CCOC(=O)c1c(C)[nH]c(C)c1S(=O)(=O)N1CCCC(C(=O)NCc2ccc(Cl)cc2)C1 (centres undefined) -20.4%
CCOCCCNC(=O)CN1C(=O)COc2ccc(S(=O)(=O)N3CCCC3)cc21 -7.67%
COc1ccccc1Nc1cc(C(=O)NC2CCC(C)CC2)c2ccccc2n1 (centres undefined) -5.78%
CCN(C(=O)Nc1cn(CC(C)C)c(=O)c2ccccc12)c1cc(C)ccc1C -20.6%
Cc1ccc(CNC(=O)CCn2cnc3ccccc3c2=O)cc1 3.34%
Cc1ccc2nc(Nc3ccc(C)c(F)c3)c3nncn3c2c1 5.86%
Cc1c(Cl)cccc1NC(=O)C1CCN(c2ncnc3c2nc2n3CCCCC2)CC1 -2.58%
CCn1nc(C)c(CCN(C)C(=O)Nc2cc(OC)c(OC)c(OC)c2)c1C -0.762%
O=C(CS(=O)Cc1ccco1)NCC=CCOc1cc(CN2CCCCC2)ccn1 (centres undefined) 37.5%
Cc1ccc(N2CC(NC(=O)c3ccc(S(=O)(=O)N4CCOCC4)cc3)CC2=O)cc1 (centres undefined) -30.5%
CCOC(=O)c1cnn(-c2ccc(C(=O)Nc3cccc(C(C)=O)c3)cc2)c1N -10.2%
COc1ccc2cc(C(=O)NCc3ccc4c(c3)CCN4C(=O)c3ccc(F)cc3)[nH]c2c1 -23%
O=C(CCn1c(=O)c2cccn2c2cccnc21)N1CCN(c2ccccc2F)CC1 -4.74%
Fc1cccc(-c2nnn3c2nc(NCCc2ccccc2)c2ccccc23)c1 -6.44%
Cc1cccc(OCC(=O)Nc2ccc(-c3nc4ccccc4o3)cc2)c1C 14.6%
CC(C)CNC(=O)N1[C@H](c2cccs2)[C@@H](C)C(=O)[C@@H](C)[C@@H]1c1cccs1 -18%
COc1ccc(C)cc1NS(=O)(=O)c1c(C(=O)N2CCCCCC2)c(C)n(C)c1C -1.71%
COc1ccc(CC(=O)NCCc2csc(-c3cccc(C)c3)n2)cc1 4.67%
Cc1ccc(-n2c(=O)[nH]c3cc(C(=O)NCc4ccccc4)ccc3c2=O)cc1 -11.3%
Cc1nc(-c2ccccc2)sc1-c1ccc(SCC(=O)NCc2ccc(Cl)cc2)nn1 14.6%
CC(CNC(=O)c1nnc(Cc2ccc(F)cc2)o1)c1ccccc1 (centres undefined) -22%
Cc1ccc(-n2nc3c(=O)n(CC(=O)NCCC(C)C)nc(C)c3c2C)cc1 -0.532%
Nc1ncn([C@H]2C[C@H](O)[C@@H](CO)O2)c(=O)n1
COCCCNC(=O)Cn1c(=O)nc(-c2ccccc2)c2ccccc21 0.008%
NCCCCNCCCN 107%
CCCCC12CN3CC(C)(CN(C1)C3c1ccc(O)c(OC)c1)C2=O (centres undefined) -6.57%
Cc1cccn2c(=O)c(C(=O)NCCc3ccccc3)cnc12 -18.2%
COc1cccc(NC(=O)CSc2nccn2C2CCCC2)c1 12.4%
C[C@@H](c1ncncc1F)C(O)(Cn1cncn1)c1ccc(F)cc1F (some centres undefined) 5.98%
O=C(NC1CCCC1)c1ccc2c(c1)N(Cc1ccccc1)C(=O)c1ccccc1S2 -17.7%
CC(C)(C(=O)c1cccnc1)c1cccnc1 9.25%
